The results in this text go back to patent publication US20220251221A1 (AGENCY FOR SCIENCE TECHNOLOGY AND RESEARCH, published 2022).

The target of experiment [1] is T1, IL-2Rβ and γc expressed natively on human cells (primary human T cells and PBMC subsets, EBV-specific T … (human, UniProt P14784 27-551; P31785 23-369).
T1 sequence 1: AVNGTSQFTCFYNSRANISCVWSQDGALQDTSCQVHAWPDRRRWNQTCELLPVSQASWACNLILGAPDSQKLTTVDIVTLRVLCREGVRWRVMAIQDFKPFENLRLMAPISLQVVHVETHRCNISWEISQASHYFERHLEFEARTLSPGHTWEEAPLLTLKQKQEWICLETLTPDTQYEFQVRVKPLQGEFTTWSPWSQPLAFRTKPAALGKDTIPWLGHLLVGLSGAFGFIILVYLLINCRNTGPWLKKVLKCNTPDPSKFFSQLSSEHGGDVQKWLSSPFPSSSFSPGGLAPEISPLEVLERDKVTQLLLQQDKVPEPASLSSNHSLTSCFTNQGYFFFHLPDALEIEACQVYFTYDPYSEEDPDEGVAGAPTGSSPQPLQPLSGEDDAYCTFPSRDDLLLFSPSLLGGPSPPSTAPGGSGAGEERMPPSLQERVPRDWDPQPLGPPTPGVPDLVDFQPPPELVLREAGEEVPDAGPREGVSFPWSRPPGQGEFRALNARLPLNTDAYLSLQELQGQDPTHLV
T1 sequence 2: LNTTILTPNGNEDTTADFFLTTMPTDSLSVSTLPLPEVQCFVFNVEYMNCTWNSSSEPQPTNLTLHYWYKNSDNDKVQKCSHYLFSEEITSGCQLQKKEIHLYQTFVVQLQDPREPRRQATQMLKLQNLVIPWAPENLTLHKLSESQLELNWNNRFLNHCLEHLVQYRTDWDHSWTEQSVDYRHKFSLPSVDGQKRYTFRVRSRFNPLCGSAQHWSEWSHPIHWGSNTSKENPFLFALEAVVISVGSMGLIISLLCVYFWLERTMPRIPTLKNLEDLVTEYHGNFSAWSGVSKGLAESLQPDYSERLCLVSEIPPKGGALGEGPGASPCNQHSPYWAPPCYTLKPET
Put plainly: cell-based or functional assay.

In experiment [2] the target is T2, monomeric γc (Homo sapiens (Human), UniProt P31785 23-262, limits assumed).
T2 construct: Neither the limits nor the species of the construct are stated; also called CD132; common γ chain
T2 sequence: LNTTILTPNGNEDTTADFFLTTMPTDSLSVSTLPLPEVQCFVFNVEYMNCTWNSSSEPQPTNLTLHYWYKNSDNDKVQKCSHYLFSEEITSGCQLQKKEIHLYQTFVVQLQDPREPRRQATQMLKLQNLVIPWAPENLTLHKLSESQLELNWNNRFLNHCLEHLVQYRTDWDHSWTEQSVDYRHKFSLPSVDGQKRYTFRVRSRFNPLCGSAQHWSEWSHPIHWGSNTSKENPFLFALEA
Put plainly: BLI, antibody captured on anti-human Fc biosensor tips, monomeric γc in solution, 1:1 Langmuir fit. The procedure:
(§1) The affinity of binding of P2C4/P1A3 and P2C4/P1A10 to IL-2Rβ and γc was measured by Bio-Layer Interferometry (BLI).
(§2) P2C4/P1A3 or P2C4/P1A10 were captured on anti-human Fc biosensor tips, and 5 different concentrations of monomeric IL-2Rβ or γc were allowed to bind to the captured antibodies. Dissociation of the antigen from the immobilised antibodies was performed for 5 min. Binding affinity was calculated by fitting binding curves using the 1:1 Langmuir model.

Experiment [3] deals with T3, monomeric IL-2Rβ (Homo sapiens (Human), UniProt P14784 27-240, limits assumed).
T3 construct: Neither the limits nor the species of the construct are stated; also called CD122
T3 sequence: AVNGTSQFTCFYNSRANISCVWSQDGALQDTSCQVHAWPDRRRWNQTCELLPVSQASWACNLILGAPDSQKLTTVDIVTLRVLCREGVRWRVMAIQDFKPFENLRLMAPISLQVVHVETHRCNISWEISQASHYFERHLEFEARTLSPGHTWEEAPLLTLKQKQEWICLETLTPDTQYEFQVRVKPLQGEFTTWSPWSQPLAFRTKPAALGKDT
Put plainly: BLI, antibody captured on anti-human Fc biosensor tips, monomeric IL-2Rβ in solution, 1:1 Langmuir fit. The procedure:
as §1, §2
(In general: In BLI a coated tip is dipped into the sample, and binding shifts an interference pattern.)

Experiment [4] concerns the target T4, recombinant γc-Fc (Homo sapiens (Human), UniProt P31785 23-262).
T4 construct: also called CD132-Fc; not shown: Fc part of the fusion not described
T4 sequence: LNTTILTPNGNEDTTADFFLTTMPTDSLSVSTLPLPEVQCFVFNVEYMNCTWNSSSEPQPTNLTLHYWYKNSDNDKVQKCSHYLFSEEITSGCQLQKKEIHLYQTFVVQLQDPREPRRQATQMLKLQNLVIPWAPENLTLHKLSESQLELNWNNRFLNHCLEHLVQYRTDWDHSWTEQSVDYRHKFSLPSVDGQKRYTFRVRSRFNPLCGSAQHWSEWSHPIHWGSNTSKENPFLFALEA
Put plainly: ELISA on coated γc-Fc ('Binding to IL-2RG (Fc)'), biotinylated antibody, streptavidin-HRP, the axis is [Ab]/nM. On the procedure: (§3) Binding of P2C4/P1A3 to IL-2Rβ or γc was measured by ELISA analysis, using recombinant IL-2Rβ-Fc and γc-Fc coated on maxisorp plates.
(§4) Biotinylated P2C4/P1A3 was added at various concentrations. Detection of binding was performed using a colorimetric assay using HRP-conjugated streptavidin which converts TMB substrate to a blue solution. The reaction was stopped using hydrochloric acid, and absorbance was measured at 450 nm and 670 nm.
(In general: In an ELISA, binding on a coated surface is turned into a signal by an enzyme label.)

The target in experiment [5] is T5, recombinant IL-2Rβ-Fc (Homo sapiens (Human), UniProt P14784 27-240).
T5 construct: also called CD122-Fc; not shown: Fc part of the fusion not described
T5 sequence: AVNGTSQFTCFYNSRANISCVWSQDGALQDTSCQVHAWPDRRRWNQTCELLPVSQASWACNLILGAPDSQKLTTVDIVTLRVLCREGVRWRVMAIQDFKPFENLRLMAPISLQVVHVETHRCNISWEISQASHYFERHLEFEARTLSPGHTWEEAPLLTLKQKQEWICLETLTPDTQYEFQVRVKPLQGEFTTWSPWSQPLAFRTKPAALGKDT
Put plainly: ELISA on coated IL-2Rβ-Fc ('Binding to IL-2RB (Fc)'), biotinylated antibody, streptavidin-HRP, the axis is [Ab]/nM. On the procedure:
as §3, §4

B1: P2C4/P1A3 bispecific anti-IL-2Rβ/γc antibody, scFv-KiH-Fc format (bispecific antibody)
chain 1: EVQLVQSGAEVKKPGSSVKVSCKASGYTFTNYYMHWVRQAPGQGLEWMGAIMPSRGGTSYPQKFQGRVTMTGDTSTSTVYMELSSLRSEDTAVYYCARGEYYYDSSGYYYWGQGTLVTVSSGGGGSGGGGSGGGGSQSALTQPASVSGSPGQSIAISCTGTSSDIGHYDFVSWYQQHPGTAPKLIIYDINNRPSGISNRFSGSKSDNMASLTISGLQPEDEADYYCSAYTSSDTLVFGGGTKLTVLNSGAGTA[sequence of human IgG1 Fc with changes and a few adjoining residues not given]
chain 2: QVQLQQWGAGLLKPSETLSLTCAVYGGSFSGYYWSWIRQPPGKGLEWIGEINHSGSTNYNPSLKSRATISVDTSKNQFSLKLSSVTAADTAVYYCATSPGGYSGGYFQHWGQGTLVTVSSGGGGSGGGGSGGGGS[sequence of about 100 residues not given]YCMQGTHWPWTFGQGTKVEIKNSGAGTAAATHTCPPCPAPEAAGGPSVFLFPPKPKDTLMISRTPEVTCVVVDVSHEDPEVKFNWYVDGVEVHNAKTKPREEQYNSTYRVVSVLTVLHQDWLNGKEYKCKVSNKALPAPIEKTISKAKGQPREPQVCTLPPSRDELTKNQVSLSCAVKGFYPSDIAVEWESNGQPENNYKTTPPVLDSDGSFFLCVSKLTVDKSRWQQGNVFSCSVMHEALHNHYTQKSLSLSPGK
notes: also called scFv (P2C4): scFv (P1A3)-KiH-Fc
A word on the Kd: it is the concentration at which binding is half-saturated. A low value points to a tighter complex. One may read the koff as the first-order rate constant of dissociation. Higher therefore signals fast dissociation. One may read the kon as the second-order rate constant of association. A lower kon goes with slow association. For orientation: EC50 means the concentration needed to bring the measured effect to its halfway point. In the case of B1, the “EC50 of NK92 cell proliferation (alamarBlue, 3 days)” value in experiment [1] came out at 0.43 nM. In addition, the Kd in experiment [2] stood at 84.7 nM; in experiment [3] it was 30 nM. The koff in experiment [2] amounted to 0.00442 s⁻¹; in experiment [3], 0.00662 s⁻¹. Moreover, the on-rate (kon) in experiment [2] came to 52200 M⁻¹ s⁻¹. The EC50 was 2.69 nM in experiment [4] and 0.416 nM in experiment [5].
